# According to the supplement of paper PMC7826260:
# This is one part of the list. One pool of 16,384 single-stranded DNAs met each Rep nickase domain in vitro (1 h at 37 °C, 3 µM enzyme); the outer parts of the 90-letter strands are left off. A value is the log2 ratio of uncut reads to the pool without enzyme; more negative means more cut, near 0 not cut, and no call is made. Shares of all reads are compared; where an enzyme cuts many sequences, the uncut ones exceed 0.
# Columns and labels:
# Test in all cases: uncleaved DNA left, log2 of reads against the no-enzyme library (log2 ratio); higher = less cleavage (more negative = more Rep cleavage of the k-mer); sequences stand for … in CTCGTCCG…ACCGGAGA
# [1] = system: T1, Rep nickase domain of Muscovy duck circovirus
# T1 sequence (Rep 1-111, printed without the tag): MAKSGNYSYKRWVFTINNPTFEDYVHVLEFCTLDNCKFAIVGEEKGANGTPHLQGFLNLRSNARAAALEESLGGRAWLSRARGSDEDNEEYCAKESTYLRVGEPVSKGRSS
# Method: (§1)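 A pool of 90-nt single-stranded DNAs with seven random bases just before the constant AC of the nick site (name = the seven bases) was cut by 3 µM recombinant His6-SUMO-tagged Rep nickase domain (300 nM DNA, 50 mM HEPES pH 8.0, 50 mM NaCl, 1 mM MnCl2, 1 h, 37 °C, three replicates). Uncut DNA was amplified and sequenced.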
# [2] = system: T2, Rep nickase domain of banana bunchy top virus
# T2 sequence (Rep 1-94, printed without the tag): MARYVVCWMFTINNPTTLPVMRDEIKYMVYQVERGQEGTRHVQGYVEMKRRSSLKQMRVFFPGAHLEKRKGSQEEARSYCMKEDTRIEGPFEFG
# Method: as §1
# [3] = system: T3, Rep nickase domain of cabbage leaf curl virus
# T3 sequence (Rep 1-116, printed without the tag): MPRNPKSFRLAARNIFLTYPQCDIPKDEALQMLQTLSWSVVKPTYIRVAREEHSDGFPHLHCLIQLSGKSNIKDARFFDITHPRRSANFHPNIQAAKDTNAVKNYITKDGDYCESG
# Method: as §1
# [4] = system: T4, Rep nickase domain of chickpea chlorotic dwarf virus
# T4 sequence (Rep 1-124, printed without the tag): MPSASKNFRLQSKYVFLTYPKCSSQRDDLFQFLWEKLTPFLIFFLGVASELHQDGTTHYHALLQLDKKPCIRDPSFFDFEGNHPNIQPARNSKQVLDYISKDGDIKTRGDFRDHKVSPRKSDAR
# Method: as §1
# [5] = system: T5, Rep nickase domain of faba bean necrotic yellows virus
# T5 sequence (Rep 1-98, printed without the tag): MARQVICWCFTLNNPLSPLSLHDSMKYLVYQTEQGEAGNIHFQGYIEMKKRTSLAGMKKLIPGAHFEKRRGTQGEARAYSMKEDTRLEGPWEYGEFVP
# Method: as §1
# [6] = system: T6, Rep nickase domain of maize striate mosaic virus
# T6 sequence (Rep 1-117, printed without the tag): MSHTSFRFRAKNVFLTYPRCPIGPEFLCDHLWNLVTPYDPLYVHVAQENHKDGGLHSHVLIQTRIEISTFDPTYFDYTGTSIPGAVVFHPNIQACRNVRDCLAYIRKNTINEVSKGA
# Method: as §1
# [7] = system: T7, Rep nickase domain of porcine circovirus 2
# T7 sequence (Rep 2-116, printed without the tag): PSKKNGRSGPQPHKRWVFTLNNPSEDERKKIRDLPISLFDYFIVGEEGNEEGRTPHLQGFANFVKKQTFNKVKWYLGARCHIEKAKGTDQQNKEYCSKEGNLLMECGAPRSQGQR
# Method: as §1
# [8] = system: T8, Rep nickase domain of tomato golden mosaic virus
# T8 sequence (Rep 1-124, printed without the tag): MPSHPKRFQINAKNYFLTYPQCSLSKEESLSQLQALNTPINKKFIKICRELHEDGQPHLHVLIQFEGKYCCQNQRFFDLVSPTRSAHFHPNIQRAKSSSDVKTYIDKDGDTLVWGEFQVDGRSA
# Method: as §1
# [9] = system: T9, Rep nickase domain of tomato yellow leaf curl virus
# T9 sequence (Rep 1-136, printed without the tag): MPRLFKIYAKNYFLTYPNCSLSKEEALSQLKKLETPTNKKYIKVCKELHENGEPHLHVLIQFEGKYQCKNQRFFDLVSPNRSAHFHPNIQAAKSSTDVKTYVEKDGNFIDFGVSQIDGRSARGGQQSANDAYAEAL
# Method: as §1
# [10] = system: T10, Rep nickase domain of wheat dwarf virus
# T10 sequence (Rep 1-137, printed without the tag): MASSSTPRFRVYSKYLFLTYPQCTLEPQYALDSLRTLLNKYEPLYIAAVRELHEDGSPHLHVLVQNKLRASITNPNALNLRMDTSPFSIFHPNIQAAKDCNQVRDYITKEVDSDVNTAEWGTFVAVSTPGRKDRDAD
# Method: as §1
Sequence,uncleaved DNA left (log2) [1],uncleaved DNA left (log2) [2],uncleaved DNA left (log2) [3],uncleaved DNA left (log2) [4],uncleaved DNA left (log2) [5],uncleaved DNA left (log2) [6],uncleaved DNA left (log2) [7],uncleaved DNA left (log2) [8],uncleaved DNA left (log2) [9],uncleaved DNA left (log2) [10]
GTTCATG,-0.134,-0.0769,0.0309,0.301,-0.0377,0.173,-0.0119,-0.0265,-0.00391,-0.0848
AGTGCTG,-0.0484,0.0306,0.0415,0.695,-0.145,1.6,0.0203,0.0745,-0.139,-0.0339
GTATATT,-2.56,-0.0826,-0.833,-0.57,-0.12,1.71,-2.63,-0.0728,0.183,-0.179
TGTACTT,-0.0586,-0.0254,0.161,-1.04,0.000407,0.913,-0.879,-0.059,0.0621,0.000434
ACCTAGA,-0.0483,-0.0137,-0.579,-0.39,-0.00483,-1.1,-0.0327,0.00248,-0.0523,-0.196
CTCGTCG,-0.0743,-0.13,-0.935,-0.586,-0.00208,-0.982,0.00811,-0.111,-0.132,-0.0714
ATTGAAC,0.0339,0.0049,0.056,0.369,0.141,0.219,0.0625,0.0642,-0.0337,0.039
GGTCGGC,-0.0359,-0.0225,0.578,1.26,-0.0966,1.68,0.162,-0.0829,0.00177,0.0753
ACCTATT,-3.28,-1.92,-1.07,-2.7,-0.13,-0.934,-3.35,-0.139,0.116,-0.657
CACCTCG,-0.0261,0.0738,-0.832,-0.0479,0.00109,-0.822,-0.0216,0.00287,0.0372,-0.161
AGGGGTA,0.0343,0.00108,0.209,1.15,0.0956,1.5,0.222,0.162,-0.0761,0.102
AGGCAGT,0.0828,0.135,0.434,0.963,0.0212,0.775,0.21,0.127,0.123,0.166
GGCCGTG,0.144,0.166,0.548,1.08,0.0731,1.35,0.151,0.187,0.213,0.0998
GAGTCGA,0.00333,0.0523,-0.0876,-0.0437,-0.0148,-0.389,-0.811,0.0643,0.0479,0.0839
ACTAAGT,0.14,0.0021,-0.00451,-0.229,0.0986,-0.887,-0.411,0.155,0.034,0.00629
TTACTTC,-0.0406,-0.0628,-0.076,-2.11,-0.00912,-0.618,-0.111,-0.142,-0.016,-0.0303
AGAGTCA,-0.0051,0.0742,0.148,0.00571,0.0325,0.384,-0.162,-0.00552,0.0476,-0.0107
GCATGGC,-0.105,-0.0786,-0.492,-0.391,-0.0705,-1.04,0.125,-0.0815,-0.0298,-0.182
CTAGTGT,-0.00395,0.0437,-0.153,-0.439,0.0102,-0.615,-0.0425,-0.0158,0.106,-0.0305
ACTTACA,-0.183,-0.106,-0.441,-2.43,0.0137,-0.8,-0.16,-0.232,-0.19,0.00795

Sequence,uncleaved DNA left (log2) [1],uncleaved DNA left (log2) [2],uncleaved DNA left (log2) [3],uncleaved DNA left (log2) [4],uncleaved DNA left (log2) [5],uncleaved DNA left (log2) [6],uncleaved DNA left (log2) [7],uncleaved DNA left (log2) [8],uncleaved DNA left (log2) [9],uncleaved DNA left (log2) [10]
ATTGGAC,-0.0812,-0.0477,0.319,1.1,-0.11,1.16,0.0928,-0.0408,-0.0638,0.0569
ACACTAG,0.0114,0.0248,-0.641,0.143,0.12,-0.66,0.214,0.000656,0.0193,-0.00737
AGCGACA,-0.0995,0.103,0.0649,0.696,-0.00306,1.41,0.003,0.111,-0.078,0.128
TTGTAGC,0.0153,-0.0585,-0.532,-0.751,-0.119,-1.35,-0.0275,-0.112,-0.0142,-0.0733
GTAGAAT,-0.0651,-0.0557,0.268,0.76,-0.102,1.78,0.00615,0.0828,0.0822,0.133
TAGGCCT,-0.0171,-0.108,-0.243,-1.63,-0.00192,0.434,-2.73,0.0254,0.143,0.0541
CATCACC,-0.00518,0.0906,-0.0503,-0.629,0.0642,-0.526,-0.0635,0.00614,-0.061,0.0216
TAGGCCC,-0.123,-0.0153,0.102,0.461,-0.0778,0.593,-0.101,-0.014,-0.00247,-0.0248
ACTCAGT,0.0955,0.0586,-0.309,-0.565,0.0127,-1.04,-0.802,0.131,0.0679,-0.0109
TAGAAAC,0.128,0.0984,0.163,-0.31,0.013,-0.427,-0.0633,0.0777,0.0535,0.177
TGAATCA,0.112,0.128,0.436,-0.0463,0.0521,0.597,0.066,0.0687,0.144,0.214
CGCATAA,-0.0572,-0.0258,-0.421,-0.305,-0.0632,-0.687,-0.0529,-0.153,-0.0495,-0.0603
CGTAGCC,0.0656,0.0284,0.263,0.625,0.0519,0.547,0.0484,-0.0585,0.043,0.0774
GCTCGGG,0.0201,-0.0924,-0.13,0.188,0.048,-0.38,0.0376,0.0593,0.063,0.0375
TACGACT,0.0079,-0.163,-0.198,-1.79,-0.152,1.22,-0.12,-0.205,-0.114,-0.109
CCGGTAT,0.0714,0.106,0.311,0.458,-0.0572,1.47,0.0223,0.178,0.0344,0.114
ACAGAAG,0.0726,0.03,-0.554,0.337,0.187,-0.402,0.241,-0.0412,0.089,0.0512
GGGGCTC,0.027,0.0278,0.751,1.88,-0.0742,2.23,0.14,0.004,0.0563,0.0612
TGAAAAC,0.0746,0.0755,0.362,0.465,0.00839,0.577,0.0784,0.0639,-0.00974,0.157
GAACCGG,-0.0149,0.0404,0.549,1.51,0.0339,1.96,0.145,0.238,0.00916,0.115

Sequence,uncleaved DNA left (log2) [1],uncleaved DNA left (log2) [2],uncleaved DNA left (log2) [3],uncleaved DNA left (log2) [4],uncleaved DNA left (log2) [5],uncleaved DNA left (log2) [6],uncleaved DNA left (log2) [7],uncleaved DNA left (log2) [8],uncleaved DNA left (log2) [9],uncleaved DNA left (log2) [10]
GTACGAA,0.114,0.0604,0.309,0.768,-0.00231,1.33,0.184,0.131,0.111,0.0928
TCTAATG,-0.0444,-0.0398,-0.326,-0.489,0.091,-0.89,-0.0416,0.0552,-0.0331,0.000115
GACGCAG,0.156,0.107,-0.0516,0.062,0.0888,-0.304,0.156,0.0469,0.0243,-0.0494
TACCGAC,-0.00844,-0.0806,0.0687,-0.0113,0.0814,-0.528,0.136,0.0636,-0.0117,-0.04
GCGTTTG,-0.0958,-0.0173,-0.132,0.14,-0.0645,0.431,-0.0294,-0.103,-0.0462,-0.138
GCTAAGC,-0.0701,0.0303,-0.108,-0.0739,-0.0211,-0.726,0.0425,-0.0574,-0.122,-0.0475
CGTTCCT,-0.393,-0.0466,-0.0262,-1.36,-0.103,0.0145,-0.779,-0.151,0.00333,0.046
GATGGTA,0.0419,-0.0327,0.309,0.588,-0.00539,1.16,-0.0239,0.0329,0.123,0.0698
CTGAGGT,0.131,0.0755,0.453,1.31,0.0458,1.4,0.0289,0.133,0.00343,-0.0299
TGGACTA,0.0896,0.0683,0.81,1.93,-0.0284,2.18,0.159,-0.00424,0.0127,0.165
CCTTACC,-0.189,0.0215,-0.286,-2.27,-0.0351,-0.613,-0.914,0.022,0.0731,0.00727
GCGTTCC,-0.0761,-0.0464,0.225,0.577,-0.105,0.698,0.0722,-0.0782,0.0301,0.00164
GACTTAC,0.0155,-0.0904,0.184,-0.367,-0.071,0.658,-0.23,-0.0271,-0.14,-0.0509
ACCGCTG,-0.139,-0.0832,0.302,1.42,-0.0912,1.14,-0.0129,0.134,-0.113,-0.00823
GAAGCCT,-0.00386,-0.0428,-0.268,-1.6,0.00263,0.343,-0.231,-0.163,-0.0502,-0.0907
CACGTCT,-0.0627,-0.0375,-0.572,-2.66,0.0401,-0.885,-0.35,-0.00964,0.00025,-0.157
GTTAATG,0.126,0.0697,0.131,0.436,0.0935,0.136,0.081,0.167,0.036,0.0612
TCTATGA,0.137,0.111,0.195,0.252,0.0817,-0.466,0.0296,0.0763,0.00172,0.00975
ACTGGCC,0.00541,-0.0289,-0.099,0.551,-0.00781,1,0.162,0.0314,-0.0669,0.0166
GTTACAC,-0.139,-0.00524,0.194,0.744,-0.108,1.54,-0.0113,-0.00447,0.00203,-0.0309
